# Laboratory results: PubChem BioAssay AID624417 (National Center for Advancing Translational Sciences (NCATS), 2012)
# About 6,400 (1.6%) of roughly 410,000 compounds were called active. Inconclusive results, whose numbers are uncertain, are shown with a selection of clear calls. Calls follow the shape of the dose curve; as a rule, active = well fitted inhibition curve with a large enough effect; inconclusive = small, poorly fitted or top-dose-only effect; inactive = no such curve, though single readings can be large or run the other way. Potencies of inconclusive entries are left out as doubtful fits.
# Biological target: Glucagon-like peptide 1 receptor (Homo sapiens) (UniProt P43220)
# Sequence of UniProt P43220 (P43220 whole entry, looked up): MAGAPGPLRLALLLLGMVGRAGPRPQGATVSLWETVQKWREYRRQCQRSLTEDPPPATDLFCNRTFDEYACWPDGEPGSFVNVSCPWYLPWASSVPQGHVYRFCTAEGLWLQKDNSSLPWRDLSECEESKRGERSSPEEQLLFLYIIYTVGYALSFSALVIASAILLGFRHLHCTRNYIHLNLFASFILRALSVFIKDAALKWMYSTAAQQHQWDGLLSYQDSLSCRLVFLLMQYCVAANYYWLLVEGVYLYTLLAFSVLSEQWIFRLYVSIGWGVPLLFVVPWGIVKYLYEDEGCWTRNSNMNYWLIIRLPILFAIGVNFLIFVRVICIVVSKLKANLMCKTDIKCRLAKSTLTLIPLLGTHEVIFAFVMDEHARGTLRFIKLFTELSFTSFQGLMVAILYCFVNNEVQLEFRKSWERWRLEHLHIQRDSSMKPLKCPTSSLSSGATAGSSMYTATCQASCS
# Assay: qHTS of GLP-1 Receptor Inverse Agonists (Inhibition Mode); also: nearly all actives have a fitted effect of over 55% in size
# Details: HEK293 GLP-1R CRE-luciferase, luminescence, 24 h, GLP-1R form is constitutively active; activity change, negative = inhibition: at 38.3 µM (top of the series) unless noted
# How it was run: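 Luminescence readout: a drop in cAMP-driven luciferase signal flags inverse agonism at a constitutively active GLP-1R stably expressed in HEK293. Compound exposure lasted 24 hr at 37 deg C, 5% CO2.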
# % is scaled to controls: 0 for no effect and ±100 for the full control effect; potency is read from the fitted curve at half-maximal effect; tags tell the direction and shape of the fitted curve.
SMILES,Potency,"activity change, negative = inhibition"
O=C(Nc1ccc(S(=O)(=O)N2CCOCC2)cc1)c1ccc(CN2CCc3ccccc3C2)cc1,"inconclusive [inhibitor, partial curve, poor fit]",–
CCCCCCCN1C2=NCCN2c2ccccc21,active: 5.62 µM,–
CCCCC(CC)CNC(=O)Cc1ccc(-n2c(=O)[nH]c3ccccc3c2=O)cc1 (configuration not stated),"inconclusive [inhibitor, partial curve, poor fit]",–
CCCCC12CN3CC(C)(CN(C1)C3c1c[nH]c3ccccc13)C2=O (configuration not stated),"inconclusive [inhibitor, single point]",–
CCOc1ccc(-n2ccnc(SCC(=O)NC3CCCC3)c2=O)cc1,"inconclusive [inhibitor, partial curve]",–
N/C(=N\OC(=O)c1ccco1)c1ccccc1,inactive,–
C/C(=N\N=c1/scc(C)n1Cc1ccco1)c1cccc([N+](=O)[O-])c1,"inconclusive [inhibitor, single point]",–
Cc1cc(C)c2nc(N3C(=O)C(O)=C(C(=O)c4ccco4)C3c3ccco3)sc2c1 (configuration not stated),inactive,–
Cc1ccc(OCc2nc(-c3ccccc3)no2)cc1,inactive,–
Cc1cccc2nc(-c3ccccn3)c(Nc3ccc(F)cc3)n12,"inconclusive [inhibitor, partial curve, poor fit]",–
CCCCOc1ccc(CSc2ncn[nH]2)cc1,inactive,–
Cc1ccc(NS(=O)(=O)c2ccc(NC(=O)CN(c3cc([N+](=O)[O-])ccc3C)S(C)(=O)=O)cc2)c(C)c1,active: 2.24 µM,–
Fc1ccccc1CN1CCCN(C(=S)Nc2cccc(Cl)c2)C1,"inconclusive [inhibitor, partial curve, poor fit]",–
Cc1ccccc1NC(=O)COC(=O)c1ccc(C)c(S(=O)(=O)N2CCCCC2)c1,"inconclusive [inhibitor, partial curve, poor fit]",–
S=C(NCc1ccccc1)NC1CCCc2ccccc21 (configuration not stated),"inconclusive [inhibitor, single point]",–
O=C(CN1CCN(c2ccccc2O)CC1)Nc1cc(S(=O)(=O)N2CCCC2)ccc1Cl,"inconclusive [inhibitor, single point]",–
Cc1sc2ncnc(SCC(=O)c3ccc4c(c3)OCCO4)c2c1-c1ccccc1,"inconclusive [inhibitor, partial curve]",–
COCCN(Cc1ccccc1)C(=O)c1ccc(C(=O)c2ccccc2)cc1,"inconclusive [inhibitor, single point]",–
O=C(Nc1cccc(F)c1)NC1CCCc2ccccc21 (configuration not stated),"inconclusive [inhibitor, single point]",–
CCN1CCCC1CNC(=O)c1cc([N+](=O)[O-])c(N(C)C)cc1OC (configuration not stated),inactive,–
CCc1ccc(CN(C)CC(=O)Nc2sccc2C#N)cc1,"inconclusive [inhibitor, single point]",–
N/C(=N\OC(=O)CCCN1C(=O)c2ccccc2C1=O)c1ccccn1,–,inactive: -0.693% [at 7.66 µM]
CN(Cc1cccc(Cl)c1Cl)C(=O)c1ccccc1SCC(=O)N1CCCC1,"inconclusive [inhibitor, single point]",–

SMILES,Potency,"activity change, negative = inhibition"
CC(CNC(=O)c1cnn(-c2ccc(F)cc2)c1-n1cccc1)c1ccccc1 (configuration not stated),active: 10 µM,–
Cc1ccc2nc(SCc3nc(-c4ccc(Cl)cc4)no3)[nH]c2c1,"inconclusive [inhibitor, single point]",–
COc1cccc(-c2cnc3c(NC=O)cc(-c4cc(C)c(O)c(C)c4)cn23)c1,"inconclusive [inhibitor, full curve]",–
O=C(CSc1nc(=O)n(CCN2CCOCC2)c2c1CCC2)Nc1ccc(Cl)c(Cl)c1,inactive,–
Cc1ccc(C23CC4CC(CC(CN)(C4)C2)C3)cc1,"inconclusive [inhibitor, full curve, poor fit]",–
Cc1cc(C)c(N=Cc2c(O)n(-c3nccs3)c(=O)c3ccccc23)c(C)c1,"inconclusive [inhibitor, single point]",–
O=C(c1cc(-c2ccc(Cl)cc2Cl)on1)N1CCCC1,"inconclusive [inhibitor, single point]",–
CC(=O)N1CCN(c2ccccc2NC(=O)COc2cc(C)ccc2C(C)C)CC1,"inconclusive [inhibitor, single point]",–
COC(=O)C1=C(C)N(c2ccc(Cl)cc2)/C(=C/c2ccc(O)cc2)C1=O,"inconclusive [inhibitor, partial curve, poor fit]",–
NCCc1c(-c2ccccc2)n(-c2ccccc2)c2ccccc12,"inconclusive [inhibitor, single point]",–
CSc1cccc(NC(=O)CSc2ncccc2C(=O)Oc2cccc([N+](=O)[O-])c2)c1,inactive,–
COc1ccc(C(C(=O)NC2CCCC2)N(C(=O)c2ccoc2C)c2ccc(C)cc2)cc1 (configuration not stated),"inconclusive [inhibitor, single point]",–
CCN(CC)CCCNc1nc(-c2ccccc2)nc2ccccc12,"inconclusive [inhibitor, partial curve, poor fit]",–
CCn1c(=O)c(CCC(=O)N2CCN(c3ccccn3)CC2)c(C)c2c(C)nn(-c3cccc(C)c3)c21,inactive,–
O=C(NC1CCCCC1)N1CCc2ccccc2C1,"inconclusive [inhibitor, single point]",–
CC1=C(C#N)C(=O)NC(=O)/C1=C/c1ccc(-c2ccc(S(N)(=O)=O)cc2)o1,inactive,–
O=C(C1CCCN(C2CC(=O)N(c3ccc(F)cc3)C2=O)C1)N1CCCC1 (configuration not stated),inactive,–
CCOc1ccc(-c2[nH]ncc2-c2ccc(Cl)cc2)c(O)c1,"inconclusive [inhibitor, partial curve, poor fit]",–
CC1CC(C)CN(CC(C)(C)NS(=O)(=O)c2ccc(Cl)cc2)C1 (configuration not stated),"inconclusive [inhibitor, single point]",–
CC(C)(C)N(Cc1ccccc1)C(=O)c1ccc(Br)o1,inactive,–
Cc1cc(NS(=O)(=O)c2ccc(Nc3nc(-c4ccc(C)c(C)c4)cs3)cc2)no1,"inconclusive [inhibitor, single point]",–
Cc1ccc(C)c(CSC2=NCCN2S(=O)(=O)c2ccccc2)c1,"inconclusive [inhibitor, single point]",–
CCOc1ccccc1NC(=O)CSc1nc2c(oc3ccccc32)c(=O)n1-c1ccc(F)cc1,inactive,–

SMILES,Potency,"activity change, negative = inhibition"
Clc1cc(Br)ccc1OCCCn1ccnc1,inactive,–
Cn1c(=O)oc2cc(S(=O)(=O)N3CCC(C(=O)NCCc4ccccc4)CC3)ccc21,inactive,–
Cc1c(C(=O)NCC2COc3ccccc3O2)oc2ccc(S(=O)(=O)N3CCOCC3)cc12 (configuration not stated),"inconclusive [inhibitor, partial curve, poor fit]",–
Cc1cc(NC(=O)c2cc(-c3ccc(C)s3)nc3ccccc23)no1,inactive,–
O=C(N/N=C/c1cccnc1)c1ccc(F)cc1,inactive,–
Cc1ccc(S(=O)(=O)N2CCCCC2)cc1NC(=O)C1COc2ccccc2O1 (configuration not stated),"inconclusive [inhibitor, single point]",–
O=C(COC(=O)/C=C/c1ccccc1)Nc1ccc(Cl)cn1,inactive,–
CCc1cc(=O)oc2c(C)c(OC(C)C(=O)NC3CC(C)(C)NC(C)(C)C3)ccc12 (configuration not stated),"inconclusive [inhibitor, single point]",–
CCN(CC(=O)NCc1cccs1)C(=O)c1ccc(-c2ccc(F)cc2)o1,"inconclusive [inhibitor, single point]",–
O=C(NCCc1ccccc1)Nc1ccc(Cl)cc1,"inconclusive [inhibitor, single point]",–
CCCc1cc(C(=O)Nc2ccn(Cc3ccc(C)cc3)n2)no1,"inconclusive [inhibitor, single point]",–
Nc1ccc(N2CCN(C(=O)c3cccs3)CC2)cc1,"inconclusive [inhibitor, single point]",–
O=C(NCCc1ccc(Cl)cc1)C1CCCN(c2ncnc3c2nc2n3CCCCC2)C1 (configuration not stated),"inconclusive [inhibitor, full curve, poor fit]",–
Clc1ccccc1CSc1nnc(-c2ccccn2)n1Cc1ccco1,"inconclusive [inhibitor, single point]",–
CCOc1ccc(CC(=NCCc2ccccc2)C2=C(O)CC(C)(C)CC2=O)cc1OCC,"inconclusive [inhibitor, single point]",–
Cc1cc(Br)ccc1NC(=O)CSc1c2c(nc3ccccc13)CCC2,"inconclusive [inhibitor, single point]",–
C#Cc1ccc(CN2CCN(CCCc3ccccc3)C(CCO)C2)cc1 (configuration not stated),"inconclusive [inhibitor, partial curve, poor fit]",–
CC1(Oc2cccc(C#N)c2)CCN(Cc2csc3ccccc23)C1 (configuration not stated),"inconclusive [inhibitor, partial curve, poor fit]",–
O=C1NC(Cc2ccccc2)c2nc3ccc(F)cc3c(=O)n2-c2cc3ccccc3cc21 (configuration not stated),"inconclusive [inhibitor, full curve, poor fit]",–
O=S(=O)(c1ccccc1)N1CCN(Cc2ccc(Cl)cc2)CC1,"inconclusive [inhibitor, single point]",–
Cc1ccccc1C(=O)N1CCN(c2ccc(NC(=S)NC(=O)c3cccs3)cc2)CC1,"inconclusive [inhibitor, full curve, poor fit]",–
